Measured values reported in PubChem BioAssay AID624173 (National Center for Advancing Translational Sciences (NCATS), 2012).
About 490 (0.12%) of roughly 410,000 compounds were called active. The shares of active, inactive and inconclusive entries below differ from those in the screen. The call rests on the fitted dose curve; in most records, active means well fitted inhibition curve with a large enough effect; inconclusive means small, poorly fitted or top-dose-only effect; inactive means flat fitted curve, though single readings scatter. Potencies beside an inconclusive call are fits to weak or partial responses and may not hold up.

target: pyruvate kinase (Trypanosoma brucei) (UniProt Q57TT1); experiment: qHTS of Trypanosoma Brucei Inhibitors; details: TbPYK enzyme, Kinase-Glo Plus ATP luminescence, 45 min; series mostly up to 76.8 µM; activity, negative = inhibition: at the top concentration; further: nearly all actives have a fitted effect of over 50% in size
Procedure, shortened: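 TbPYK + substrate in 50 mM TEA pH 7.2, 100 mM KCl, 10 mM MgCl2, 0.05% BSA, 0.01% Tween-20; cpd pinned; ADP 130 uM final; 45 min RT; Kinase-Glo Plus 10 min; luminescence endpoint.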
On the % scale 0 is the no-effect control and ±100 the full control effect; potency means the concentration at half of the fitted maximal effect; tags describe the fitted curve by direction and shape.

SMILES	Potency	activity, negative = inhibition
CC(C)(C)OC(=O)CN1C(=O)NC(Cc2c[nH]c3ccccc23)C1=O (configuration not stated)	inconclusive: 50.1 µM [inhibitor, single point]	–
O=c1cc(CSc2ccccc2)[nH]c(=S)[nH]1	inconclusive: 35.5 µM [inhibitor, single point]	–
CCOC(=O)N1CCN(C(=O)c2ccc(Cn3c(=S)[nH]c4cc5c(cc4c3=O)OCO5)cc2)CC1	inconclusive: 39.8 µM [inhibitor, partial curve, poor fit]	–
Cc1c(O)nc(SCC(=O)Nc2ccc3c4c(cccc24)CC3)n(-c2ccccc2)c1=O	–	inactive: -0.915%
CCOc1ccc(N2C(=O)/C(=C/c3ccc(C)o3)C(=O)NC2=S)cc1	inconclusive: 17.8 µM [inhibitor, partial curve]	–
COC(=O)c1sc2nc(-c3ccco3)ccc2c1N	inconclusive: 28.2 µM [inhibitor, partial curve, poor fit]	–
CS(=O)(=O)c1ccc(N)c(SSc2cc(S(C)(=O)=O)ccc2N)c1	active: 3.55 µM	–
COc1cccc(CNC(=O)c2cccc(-n3c(C)nc4cccnc43)c2C)c1	–	inactive: -1.53% [at 15.4 µM]
COC(=O)Cc1ccc2sc(-c3ccccc3)nc2c1	inconclusive: 28.2 µM [inhibitor, partial curve, poor fit]	–
Clc1nnc2c3ccccc3ccn12	–	inactive: -6.55%
CC(=O)c1cc2cccc(OC3(C)CCN(Cc4ccc(-c5ccccn5)cc4)C3)c2o1 (configuration not stated)	inconclusive: 39.8 µM [inhibitor, partial curve, poor fit]	–
COc1ccc(NS(=O)(=O)c2ccc(-c3n[nH]c(=S)n3Cc3ccccc3)cc2)cc1	inconclusive: 20 µM [inhibitor, partial curve, poor fit]	–
COCc1cc(C)c(C#N)c(=S)[nH]1	inconclusive: 7.08 µM [inhibitor, partial curve, poor fit]	–
CCN1CCN(C(=O)C2c3cc(OC)c(OC)cc3C(=O)N(C)C2c2ccc(SC)cc2)CC1 (configuration not stated)	–	inactive: -9.2%
COc1ccc(/C=C/C(=O)NCCc2ccc(OC)c(OC)c2)cc1	–	inactive: -1.59%
CCn1nnnc1SCC(=O)Nc1cc(OC)cc(OC)c1	inconclusive: 39.8 µM [inhibitor, single point]	–
COc1cccc(CN(C)C(=O)c2ccc3c(=O)n4c(nc3c2)CCC4)c1OC	–	inactive: -7.24%
Oc1ccccc1/C=N/n1c(-c2ccccc2)n[nH]c1=S	inconclusive: 10 µM [inhibitor, partial curve, poor fit]	–
CC1CCCCC1NC(=O)c1ccc(S(=O)(=O)NCc2ccco2)cc1 (configuration not stated)	–	inactive: 13%
CCCN1CCN(c2ncnc3sc(C(=O)Nc4ccc(N(CC)CC)cc4C)c(C)c23)CC1	–	inactive: -12%
COC(=O)c1nn2c(C(F)(F)F)cc(-c3ccc(Br)o3)nc2c1Br	inconclusive: 50.1 µM [inhibitor, single point]	–

SMILES	Potency	activity, negative = inhibition
Cc1ccc(/C=C2/NC(=O)N(Cc3ccccc3)C2=O)s1	inconclusive: 35.5 µM [inhibitor, partial curve, poor fit]	–
Clc1cccc(N2CCN(c3nnnn3-c3ccccc3)CC2)c1	–	inactive: 1.19%
COc1cccc(N2C(=O)NC(=O)/C(=C\c3ccc([N+](=O)[O-])s3)C2=O)c1	inconclusive: 25.1 µM [inhibitor, partial curve]	–
O=C1C(Cl)=C(NC(=O)c2ccccc2)C(=O)C(Cl)=C1NC(=O)c1ccccc1	inconclusive: 10 µM [inhibitor, full curve, poor fit]	–
Cc1ccc(OCC(=O)Nc2cc(C(=O)O)cc(C(=O)O)c2)cc1C	inconclusive: 17.8 µM [inhibitor, partial curve, poor fit]	–
CC(C)(C)NNC(=S)Nc1ccc(S(=O)(=O)N2CCOCC2)cc1	–	inactive: 0.801%
Cn1ncc2c(=S)[nH]c(=S)[nH]c21	inconclusive: 14.1 µM [inhibitor, partial curve]	–
CCCCNc1nc2c(c(=O)n(C)c(=O)n2C)n1Cc1cccc(OC)c1	inconclusive: 35.5 µM [inhibitor, single point]	–
COc1cc(C2CC(=O)N3CN(Cc4ccco4)CSC3=C2C#N)ccc1OCc1ccccc1 (configuration not stated)	inconclusive: 1.58 µM [inhibitor, partial curve, poor fit]	–
S=c1[nH]nc(-c2cc(-c3ccccc3)n[nH]2)n1/N=C/c1cccs1	inconclusive: 3.55 µM [inhibitor, partial curve]	–
C=CCN1C(=O)/C(=C\c2ccc(N3CCOCC3)o2)C(=O)NC1=S	inconclusive: 12.6 µM [inhibitor, partial curve]	–
CCOc1cc2[nH]c(=S)n(CCCN3CCCC3=O)c(=O)c2cc1OCC	inconclusive: 39.8 µM [inhibitor, partial curve, poor fit]	–
Cc1ccccc1NC(=O)c1ccc(S(=O)(=O)C(F)F)cc1	inconclusive: 39.8 µM [inhibitor, single point]	–
C(=C\c1ccco1)/c1ccc2ccccc2n1	inconclusive: 39.8 µM [inhibitor, partial curve, poor fit]	–
Cc1cccc(-n2c(CCc3ccccc3)nnc2SCC(=O)c2ccccc2)c1	inconclusive: 28.2 µM [inhibitor, partial curve, poor fit]	–
O=C(O)c1ccc(Cn2cnc3cccnc32)cc1	inconclusive: 25.1 µM [inhibitor, partial curve]	–
CCOc1ccc(CN(C)CC(=O)NCc2ccccc2)cc1	–	inactive: 2.51%
COc1cccc(C(NC(C)=O)c2ccc3cccnc3c2O)c1 (configuration not stated)	inconclusive: 44.7 µM [inhibitor, single point]	–
CCC(C)Oc1cc(-c2ccnc(Nc3cccc(Cl)c3)n2)ccn1 (configuration not stated)	inconclusive: 35.5 µM [inhibitor, single point]	–
CCCc1cc(-c2n[nH]c(=S)n2CC)c2ccccc2n1	inconclusive: 11.2 µM [inhibitor, partial curve, poor fit]	–
CCC(Sc1nc(-c2ccccc2)[nH]c1S(=O)(=O)c1ccc(C)cc1)C(=O)O (configuration not stated)	inconclusive: 14.1 µM [inhibitor, partial curve]	–
